Measurements taken from PubChem BioAssay AID1814 (Broad Institute, 2009).
Screen size: about 300,000 compounds; about 22,000 (7.3%) were called active. The inconclusive results got no clear call from the source; some entries with a clear call stand among them for comparison. Cut-off read from the data, not from the text of the source: active = activity score below about -60%; inconclusive = mostly about -28% to -61%; inactive = positive scores.

Assay: Activators via SNCA 5'UTR binding, MLPCN (AID 1814)
Settings: alpha-synuclein 5'UTR reporter, activators screen; stronger effect = lower value; tested at 7.5 µM

Row | Structure (SMILES) | activity score
1 | O=C(NC(=S)NCCC1=CCCCC1)c1ccco1 | inconclusive: -61%
2 | O=c1c2ccccc2ncn1-c1ccc2c(c1)OCCO2 | active: -111%
3 | O=C(CN1C(=O)c2ccccc2S1(=O)=O)c1ccc2c(c1)OCCO2 | inactive: 111%
4 | CCN1/C(=C/C=C/C=C/c2sc3ccccc3[n+]2CC)Sc2ccccc21 | inactive: 126%
5 | O=C1CSC(=S)N1CC1CCCO1 (stereo not drawn) | inconclusive: -60.9%
6 | O=C(NC1CCCc2ccccc21)c1n[nH]c(=O)c2ccccc12 (stereo not drawn) | inactive: 87.5%
7 | CCc1ccc(C2CC(=O)NC(SCC(=O)OC(C)C)=C2C#N)cc1 (stereo not drawn) | inconclusive: -60.1%
8 | Cc1cc(N/N=C/c2ccccc2[N+](=O)[O-])nc(-n2nc(C)cc2C)n1 | inactive: 56.9%
9 | N/C(=N\OC(=O)c1ccccc1[N+](=O)[O-])c1cccnc1 | active: -96.9%
10 | COc1cc(-c2noc(C)c2C#Cc2ccsc2)cc(OC)c1OC | inactive: 68.8%
11 | COc1cc(/C=C/[N+](=O)[O-])ccc1OC(=O)/C=C/c1ccc(F)cc1 | active: -71.6%
12 | COc1ccc(N2C(=O)[C@@H]3[C@H](C2=O)[C@H](C(=O)c2ccc(OC(C)=O)cc2)N2N=CC=C[C@@H]32)cc1 | inconclusive: -47.8%
13 | CCc1c(C)sc(NC(=O)c2ccoc2C)c1C(N)=O | inconclusive: -54%
14 | O=C(CN1C(=O)COc2ccccc21)Nc1ccc(N2CCOCC2)cc1 | inconclusive: -36.2%
15 | Cc1cc(N2CCCCC2)nc(-c2ccc(Br)cc2)n1 | inconclusive: -53.5%
16 | O=C1CC(c2cccs2)c2ccc3ccccc3c2N1 (stereo not drawn) | inconclusive: -51.4%
17 | COc1ccc(-c2coc3cc(O)ccc3c2=O)cc1O | active: -89.6%
18 | Oc1[nH]c2ccccc2c1/C=N/c1nccs1 | active: -145%
19 | NNC(=O)c1nn(-c2ccccc2)cc1O | inactive: 83.4%
20 | COc1cc(/C=C(/C#N)c2nc3ccccc3c(=O)[nH]2)ccc1O | inconclusive: -36.5%
21 | O=C(N/N=C/c1c(O)ccc2ccccc12)c1[nH]ncc1Br | inactive: 106%
22 | COc1ccc(/C=C2/SC(=S)N(CCC(=O)O)C2=O)cc1 | inactive: 97.5%
23 | CCN(CC)S(=O)(=O)c1ccc(OC)c(NC(=O)C(C)Oc2ccc3c(C)cc(=O)oc3c2)c1 (stereo not drawn) | inconclusive: -47.4%
24 | CN1c2ccccc2C(O)=C(C(=S)Nc2ccc(F)c(Cl)c2)S1(=O)=O | inconclusive: -50.1%

Row | Structure (SMILES) | activity score
25 | CC(=O)Nc1ccc(/C(C)=N\NC(=O)c2ccc(-c3ccccc3)cc2)cc1 | inactive: 95.5%
26 | CCOc1ccc2c(c1)ncn2Cc1ccccc1 | inconclusive: -56.8%
27 | CC1CCN(c2ccc(/C=N/n3nnnc3N)cc2[N+](=O)[O-])CC1 | inconclusive: -59.8%
28 | N#Cc1cnn2c1nc(N1CCCCC1)c1ccccc12 | inactive: 64.3%
29 | Cc1cccc(Cn2c(O)c(N=NC(=S)Nc3ccccc3F)c3ccccc32)c1 | inactive: 61%
30 | COc1ccccc1C(=O)Nc1nnc(-c2ccc(Cl)cc2)o1 | inconclusive: -54.2%
31 | C=C(C)CSc1nc(N)c2c(C)c(C)sc2n1 | inconclusive: -51.5%
32 | O=C(CC1CCCC1)Nc1cccc(Br)c1 | inconclusive: -50.8%
33 | Cc1ccc(-c2cccc(C(=O)NCCc3ccccc3)n2)c2ccccc12 | inconclusive: -38.5%
34 | O=c1c2sc(-c3ccccc3)cc2nc2n1CCC2 | inactive: 82.4%
35 | COc1ccc(CC(=O)c2c(O)cc(O)cc2O)cc1OC | inconclusive: -32.6%
36 | Cc1ccnc(NC(=O)COc2ccc3oc4c(c3c2)CCCC4)c1 | inconclusive: -53.6%
37 | CCOc1nc(-c2ccc(Cl)cc2)nc2ccccc12 | inconclusive: -48.3%
38 | Cc1cc(C(=O)Cn2nc(C(=O)O)c3ccccc3c2=O)c(C)n1CC(F)(F)F | inconclusive: -58.7%
39 | Cc1cccc2c(=O)c(Br)c(C)n(Cc3ccccc3)c12 | inconclusive: -50.3%
40 | Cc1ccc(CN=C(N)Nc2nc(C)cc(C)n2)cc1 | inactive: 117%
41 | Cc1ccccc1Cn1c(O)c(N=NC(=S)Nc2ccccc2F)c2ccccc21 | inactive: 72.5%
42 | O=C(CSC1=NCCN1)NC(c1ccccc1)c1ccccc1 | inconclusive: -46.2%
43 | Cc1cccc(COc2ccc(/C=N/NC(=O)c3nnn(-c4nonc4N)c3CN3CCCCC3)cc2)c1 | active: -101%
44 | Cc1ccc(Nc2nc(N)nc(CSc3nncn3C)n2)cc1 | inconclusive: -59.2%
45 | O=c1oc2ccc(Br)cc2cc1S(=O)(=O)c1ccc(F)cc1 | inconclusive: -60.5%
46 | O=C(CSCc1ccccc1)Nc1ccc(F)cc1F | inconclusive: -42.5%
47 | CC(C)(C)c1ccc(Oc2ccc(N)cc2)cc1 | inactive: 112%
48 | COc1cc(CNc2ccc(N3CCN(C(C)=O)CC3)cc2)ccc1OCc1ccccc1 | inconclusive: -37.7%

Row | Structure (SMILES) | activity score
49 | CN=c1scc(-c2ccccc2Br)n1/N=C/c1ccc[nH]1 | inactive: 64%
50 | Brc1ccc(-c2ncc(-c3ccccc3)cn2)cc1 | inconclusive: -59.6%
51 | O=C(NCCc1ccc2c(c1)OCCO2)c1ccccn1 | inconclusive: -56.7%
52 | CC(C)(C)C(=O)OCc1cn(-c2ccccc2)nn1 | inconclusive: -60.1%
53 | CCOc1ccc(-c2cc(C(=O)NCCCn3ccnc3)c3cc(Br)ccc3n2)cc1 | inactive: 60.3%
54 | Cc1ccc(/C=C/c2nc3ccccc3c(=O)[nH]2)cc1 | inactive: 67.8%
55 | CN(C(=O)OC(C)(C)C)c1ccc(-c2nc3ccccc3s2)cc1 | inactive: 104%
56 | Cn1c(NCCc2ccccc2)cc(=O)n(C)c1=O | inconclusive: -51.5%
57 | COc1ccc(/C=N/NC(=O)CCn2cnc(-c3ccccc3)c2-c2ccccc2)cc1 | inactive: 55.9%
58 | O=C(/C=C/c1cccc(Cl)c1)c1ccc([N+](=O)[O-])o1 | inactive: 91.2%
59 | O=C(/C=C/c1ccccc1)NC(=S)NNC(=O)c1cnccn1 | inactive: 86.6%
60 | C#CCOCCOCCOCCNc1nc(N2CCN(C(=O)CCCCCCCCCCNC(=O)[C@H](CCCCN)n3cc(C[C@@H](C)CC)nn3)CC2)nc(N2CCN(C(=O)CCCCCCCCCCNC(=O)[C@H](CCCCN)n3cc(C[C@@H](C)CC)nn3)CC2)n1 | inactive: 107%
61 | N#Cc1ccc(N2Cc3ccccc3C2=NC(=O)c2cccs2)cc1 | inconclusive: -41.2%
62 | COc1cc(-c2nc(-c3cccc(C)c3)no2)cc(OC)c1OC | inconclusive: -45%
63 | CCOc1ccc(C(=O)/C=C/c2cc(OC)c(OC)c(OC)c2)cc1 | inconclusive: -58.3%
64 | O=C(N/N=C/c1sc(N2CCOCC2)nc1-c1ccccc1)c1cccc(S(=O)(=O)N2CCOCC2)c1 | inactive: 86.5%
65 | Cc1ccc(NC(=O)c2ccc3c(c2)N(CC(=O)NC(C)C)C(=O)C(C)(C)O3)cc1 | inconclusive: -39.4%
66 | Oc1ccc(/C=N\Nc2nncc(-c3ccccc3)n2)cc1 | active: -174%
67 | CCOC(=O)c1ccc(NC(=O)CSc2nccn2C)cc1 | inconclusive: -60.5%
68 | CCc1ccc(N=c2c([N+](=O)[O-])nn(-c3ccc4c(c3)OCCO4)n2O)cc1 | inconclusive: -54.6%
69 | Cc1cc(C)c(C(=O)CSc2nc(C)cc(C)c2C(N)=O)c(C)c1 | inconclusive: -44.5%
70 | Cc1ccc(S(=O)(=O)Nc2ccc(NC(=O)Nc3ccc(F)cc3F)cc2)cc1 | inactive: 78.5%
71 | COc1cc(C)c(C(=O)CC(=O)c2c(C)cc(OC)cc2C)c(C)c1 | inactive: 72.2%
72 | COC(CN(C(=O)CCl)C(C(=O)NC1CCCCC1)c1ccc(C)cc1)OC (stereo not drawn) | inconclusive: -36%

Row | Structure (SMILES) | activity score
73 | O=C(Nc1ccc(N2CCOCC2)cc1)c1ccc(S(=O)(=O)NCc2ccco2)cc1 | inconclusive: -54.7%
74 | Cc1ccc(C2=[N+]([O-])C3(CCCCC3=O)N(O)C2(C)C)cc1 (stereo not drawn) | inactive: 49.4%
75 | O=C(NCc1ccccc1)c1ccc2c(c1)OCCO2 | inconclusive: -52.7%
76 | CCCC1(C)Nc2ccccc2-c2nc3ccccc3n21 (stereo not drawn) | active: -95.7%
77 | CC(C)(C)NC(=O)C(=O)NN=C1CCCCCCC1 | inconclusive: -36.8%
78 | COc1ccc(/C=C2\SC(c3ccc(C)cc3)=NC2=O)cc1OC | inconclusive: -19.6%
79 | CCOC(=O)NC(=O)/C(C#N)=C\Nc1ccc(Cl)cc1Cl | inconclusive: -48.2%
80 | Cc1ccsc1/C=N/NC(=O)C(N)=O | inconclusive: -56.8%
81 | O=C(Nc1nc(-c2ccccn2)cs1)c1ncc(Cl)c(Cl)c1Cl | inconclusive: -54%
82 | O=C(COc1ccc([N+](=O)[O-])cc1)Nc1nc(-c2ccccn2)cs1 | inactive: 56.9%
83 | Cc1ccc2ccc3cccnc3c2n1 | inconclusive: -51.3%
84 | Cc1cc(C(=O)NC(=S)Nc2ccccc2N2CCCC2)ccc1[N+](=O)[O-] | inconclusive: -41.3%
85 | NNC(=O)c1cccc(COc2cccc(Br)c2)c1 | active: -86.4%
86 | O=C(O)CCn1c(SCc2ccccc2)nc2ccccc21 | inconclusive: -41.5%
87 | COc1ccc(OC)c(NC(=O)c2ccc(Cl)cc2)c1 | inconclusive: -55.5%
88 | COc1ccc(-c2oc3cc(OC)c(O)c(OC)c3c(=O)c2OC)cc1O | inactive: 65%
89 | CC(SCc1ccccc1)C(=O)Nc1ccccc1Br (stereo not drawn) | inconclusive: -56.4%
90 | O=C(CNCc1ccccc1)NC1C2CC3CC(C2)CC1C3 (stereo not drawn) | inconclusive: -60.2%
91 | Fc1ccc(NC(=S)N2CCc3ccccc3C2)c(F)c1 | inconclusive: -48.9%
92 | CCn1cc(C2=NC(CC(C)C)CO2)c2ccccc21 (stereo not drawn) | inconclusive: -55.2%
93 | COc1ccc(C(NC(C)=O)c2ccc3cccnc3c2O)c(OC)c1 (stereo not drawn) | inactive: 83.5%
